We go through four compounds from patent US8242178B2 (University of South Carolina, priority 2007, dated 2012).

The test system of assay [1] is Jurkat cells. Put plainly: Mitochondrial localization of Bad in THC-stimulated Jurkat cells, confocal microscopy. Particulars: 10 μM THC versus vehicle.
The subject of assay [2] is Jurkat cell line (Mek/30). Put plainly: THC-induced apoptosis in Jurkat cells inducibly expressing constitutively active MEK.
For assay [3], the system named is Jurkat cells. Put plainly: Raf-1/MEK/ERK signaling in THC-treated Jurkat cells, Western blot. Type of assay: cell-based, human. Background: Immunoblotting shows a protein as a band on a membrane.
A further assay deals with thymocytes. Put plainly: THC- and CBD-induced thymocyte apoptosis with caspase inhibitors, CB1/CB2 or vanilloid receptor antagonists, TUNEL. Type of assay: cell-based. Conditions: for induced thymocyte apoptosis in presence of VR1 antagonist capsazepine: 10 μM, 48 hours; for induced thymocyte apoptosis in presence of CB1 antagonist / induced thymocyte apoptosis in presence of CB2 antagonist / induced thymocyte apoptosis in presence of caspase 3, 8 and 9 inhibitors: about 10 μM, 24 hr, TUNEL.

Assay [4] relates to activated T cells (splenocytes + anti-CD3 mAbs). Put plainly: Proliferation of anti-CD3 mAb-activated T cells, thymidine incorporation assay. It is filed as cell-based. Conditions: for effect of antagonist alone on T cell proliferation: in the absence of CBD.
A further assay deals with CB2 (Homo sapiens, UniProt P34972). Particulars: cited from earlier work.
The subject of assay [5] is activated B cells (splenocytes + LPS). Put plainly: Proliferation of LPS-activated B cells, thymidine incorporation assay. Conditions: 48 hr.
For another assay, the target named is cannabinoid receptor CB1 (Homo sapiens, UniProt P21554). Conditions: cited from earlier work.
The test system of assay [6] is Con A-induced autoimmune hepatitis. Put plainly: Con A-induced autoimmune hepatitis in mice. Type of assay: in vivo, C57BL/6 mice. Conditions: CBD about 50 mg/kg i.p.
In a further assay the test system is splenocytes. Put plainly: Apoptosis induction in splenocytes in vitro, TUNEL. Conditions: 24 hrs.
In assay [7] the test system is Jurkat cells. Put plainly: Activation of the caspase cascade in Jurkat cells, Western blot. It is filed as cell-based, human.
Assay [8] concerns SEB-induced activation of Vβ8+ T cells. More on the design: species or system C57BL/6 mice. Conditions: mouse, in vivo.
For the next assay, the target named is VR-1 (Homo sapiens, UniProt Q8NER1). Conditions: cited from earlier work.
Assay [9] concerns Jurkat cells. Put plainly: CBD-induced apoptosis in Jurkat cells, TUNEL and Wright-Giemsa staining. Type of assay: cell-based, human.
[10] abbreviates: cannabinoid antagonist alone (about 2 μM SR141716, about 4 μM SR144528).

Sequence of UniProt P21554 (P21554 whole entry): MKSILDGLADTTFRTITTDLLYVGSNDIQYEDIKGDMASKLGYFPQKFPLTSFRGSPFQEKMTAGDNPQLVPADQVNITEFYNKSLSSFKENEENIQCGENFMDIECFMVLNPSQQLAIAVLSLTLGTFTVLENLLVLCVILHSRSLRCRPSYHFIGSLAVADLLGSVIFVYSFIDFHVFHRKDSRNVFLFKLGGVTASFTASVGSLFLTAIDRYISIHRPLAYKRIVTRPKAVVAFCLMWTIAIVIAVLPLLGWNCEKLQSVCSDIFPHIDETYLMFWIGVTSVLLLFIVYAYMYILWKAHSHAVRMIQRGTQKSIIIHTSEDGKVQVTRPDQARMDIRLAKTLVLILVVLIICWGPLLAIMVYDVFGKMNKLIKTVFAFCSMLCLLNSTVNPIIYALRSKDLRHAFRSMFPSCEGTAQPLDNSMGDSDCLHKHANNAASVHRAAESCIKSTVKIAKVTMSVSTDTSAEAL
Sequence of UniProt P34972 (P34972 whole entry): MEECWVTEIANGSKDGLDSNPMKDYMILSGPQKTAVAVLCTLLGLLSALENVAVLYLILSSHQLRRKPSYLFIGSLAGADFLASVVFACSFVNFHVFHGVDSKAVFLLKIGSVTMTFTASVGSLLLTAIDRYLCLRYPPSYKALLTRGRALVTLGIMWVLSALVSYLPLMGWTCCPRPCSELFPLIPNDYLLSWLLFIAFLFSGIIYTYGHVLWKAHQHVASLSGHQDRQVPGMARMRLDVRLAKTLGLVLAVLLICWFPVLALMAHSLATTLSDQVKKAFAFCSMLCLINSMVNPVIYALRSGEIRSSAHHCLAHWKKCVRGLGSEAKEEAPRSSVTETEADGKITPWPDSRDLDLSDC

With `CCCCCc1cc(O)c2c(c1)OC(C)(C)[C@@H]1CCC(C)=C[C@@H]21` [THC, Δ9-tetrahydrocannabinol], in the assay with Jurkat cells [1], the “association of Bad with mitochondria” value was “strong association”. For the same compound, in assay [2] (THC alone, absence of doxycycline), the DNA fragmentation result was “unequivocal induction”. In assay [2] (THC in the absence of doxycycline), this compound registered an apoptosis of cells of roughly 50%. Moreover, in the assay on Jurkat cells [3] (10 μM THC), the “levels of phosphorylation of MEK” value is “diminished” and the “phosphorylation of ERK1/2” value is recorded as “largely decreased”. Also, the Raf-1 expression result in the assay with Jurkat cells [3] (10 μM THC alone) was “very pronounced reduction”. For the same compound, the “phospho-p38 or phospho-JNK” value in the assay on Jurkat cells [3] (THC) is reported as “none of the THC concentrations tested induced alterations”. For the same compound, in the assay with thymocytes, the “induced thymocyte apoptosis in presence of VR1 antagonist capsazepine” value is “not altered”; the “induced thymocyte apoptosis in presence of CB1 antagonist” value is given as “significantly block”; the “induced thymocyte apoptosis in presence of CB2 antagonist” value is on record as “significantly block”; the “induced thymocyte apoptosis in presence of caspase 3, 8 and 9 inhibitors” value is recorded as “significantly blocked”.

For the compound `Cc1c(C(=O)NN2CCCCC2)nn(-c2ccc(Cl)cc2Cl)c1-c1ccc(Cl)cc1` [SR141716A, reference compound], in [4], the “effect of antagonist alone on T cell proliferation” value is on record as “failed to exhibit a significant effect”. The Raf-1 expression result in the assay on Jurkat cells [3] (setting [10]) is “little effect”.

On to SR144528 [reference compound], for which the “effect of antagonist alone on T cell proliferation” value in assay [4] is given as “failed to exhibit a significant effect”. Besides, the Raf-1 expression result with Jurkat cells [3] (setting [10]) was “little effect”.

On to `C=C(C)[C@@H]1CCC(C)=C[C@H]1c1c(O)cc(CCCCC)cc1O` [CBD, cannabidiol], for which the “activity against CB2” value on CB2 is recorded as “moderate activity”. For the same compound, the “block of CBD-induced decrease in T cell proliferative response by CB1 and CB2 receptor antagonists” value in [4] (CBD plus SR141716A or SR144528) is “failed to block”. Besides, the T cell proliferation result in [4] (about 5 μM CBD, anti-CD3 mAbs, 48 hr) was “not affected”. Further, the “T cell proliferative response” value in assay [4] (about 10 μM CBD, anti-CD3 mAbs, 48 hr) was “completely inhibited”. The “B cell proliferative response” value in assay [5] (about 5 μM CBD) is listed as “completely decreased the response”. Also, in assay [5] (about 10 μM CBD), the “B cell proliferative response” value is recorded as “completely inhibited”. Moreover, the “activity against cannabinoid receptor CB1” value on cannabinoid receptor CB1 is on record as “little or no activity”. Further, the “liver damage (hematoxylin-eosin staining)” value in assay [6] (48 h after Con A challenge) was “significantly reduced”. Moreover, the “plasma AST levels” value in assay [6] (ConA 12.5 mg/kg i.v., 6, 12, 24 and 48 h) is listed as “marked decrease”. In the assay with splenocytes, the “CBD concentration inducing apoptosis of splenocytes (dose dependent increase)” value is no less than 2.5 µM. Besides, in the assay with Jurkat cells [7], the “CBD concentration leading to activation of the caspase cascade” value was no less than 2.5 µM and the “CBD-mediated induction of the caspase cascade in presence of CB2 antagonist SR144528” value is reported as “significantly prevent”. In assay [8], the “Vβ8+ T cells in lymph node” value was 12.8%, the “absolute SEB reactive Vβ8+ T cell numbers” value is recorded as “dose dependent decrease” and the “popliteal lymph node cellularity” value is “dose dependent decrease”. Also, in the assay on thymocytes, the “induced thymocyte apoptosis in presence of VR1 antagonist capsazepine” value is recorded as “significantly inhibited”; the “induced thymocyte apoptosis in presence of CB1 antagonist” value was “completely failed to block”; the “induced thymocyte apoptosis in presence of CB2 antagonist” value is recorded as “blocked it partially”; the “induced thymocyte apoptosis in presence of caspase 3, 8 and 9 inhibitors” value is “involvement of caspases was noted”. The VR-1 agonist potency entry at VR-1 is reported as “potency equivalent to capsaicin”. The “morphology of Jurkat cells (Wright-Giemsa)” value in the assay on Jurkat cells [9] (CBD after pretreatment with SR144528) is “significantly fewer signs of apoptosis”. Also, the “morphology of Jurkat cells (Wright-Giemsa)” value in the assay with Jurkat cells [9] (about 5.0 μM CBD) was “majority of the Jurkat cells displayed classical morphological features of apoptosis”. In the assay on Jurkat cells [9] (about 5 μM CBD, 16 h), the “cannabidiol-induced apoptosis of Jurkat cells in presence of CB1 antagonist” value was “unable to prevent”. For the same compound, in the assay on Jurkat cells [9] (about 5.0 μM CBD, 16 h, vehicle 3.5%), the “apoptosis of Jurkat cells (TUNEL)” value was 83.5%. In addition, in the assay with Jurkat cells [9] (about 5.0 μM CBD, pre-exposed to CB2-selective antagonist SR144528), the “apoptosis of Jurkat cells (TUNEL)” value is reported as 18.7%.
